According to PubChem BioAssay AID686992 (Broad Institute, 2013):
Screen size: about 260,000 compounds; about 960 (0.37%) were called active. Inconclusive results, whose numbers are uncertain, are shown with a selection of clear calls.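 Rule for the calls: active = mean E-selectin-positive cell signal at least 10% of the positive control, reached in at least 60% of replicates, without over 20% cell loss; inconclusive = no rule given, readout overlaps actives, possibly toxicity-flagged; inactive = the rest, including those meeting only one limit.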

Each molecule was assayed against E-selectin (Homo sapiens) (UniProt P16581) (assay: inducers of endothelial E-selectin expression – imaging, HUVEC, immunofluorescence imaging, single point, primary screen (AID 686992;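 note: signal is the percent of cells scored E-selectin positive by PE staining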)). Conditions: at 7.58 µM, active compounds read high, normalized: neutral wells 0, TNF-alpha wells 100.
Sequence of UniProt P16581 (P16581 whole entry, looked up): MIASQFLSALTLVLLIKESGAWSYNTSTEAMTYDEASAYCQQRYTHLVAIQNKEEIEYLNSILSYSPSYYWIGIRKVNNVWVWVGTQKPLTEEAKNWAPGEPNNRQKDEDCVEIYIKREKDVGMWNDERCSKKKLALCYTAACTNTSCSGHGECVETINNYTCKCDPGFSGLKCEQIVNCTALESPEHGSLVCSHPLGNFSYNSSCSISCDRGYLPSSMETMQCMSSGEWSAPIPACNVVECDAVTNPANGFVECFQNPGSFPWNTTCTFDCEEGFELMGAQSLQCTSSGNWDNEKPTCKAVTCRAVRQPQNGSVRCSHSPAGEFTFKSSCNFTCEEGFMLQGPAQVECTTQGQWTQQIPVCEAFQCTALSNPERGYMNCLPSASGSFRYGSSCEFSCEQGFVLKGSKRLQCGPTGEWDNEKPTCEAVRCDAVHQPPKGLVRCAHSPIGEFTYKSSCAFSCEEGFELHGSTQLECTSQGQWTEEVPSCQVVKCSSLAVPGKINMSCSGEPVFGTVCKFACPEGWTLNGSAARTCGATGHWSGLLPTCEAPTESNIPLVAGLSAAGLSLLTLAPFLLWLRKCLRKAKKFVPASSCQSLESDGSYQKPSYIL
In short: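 System: HUVEC / Compound: single concentration / Signal: immunofluorescence imaging / Read-out: percent E-selectin-positive cells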
For `Cc1ccccc1/C=C/C1=NCCN1`, the activation was inconclusive: 59.3%.
`CN(CC(=O)Nc1ccccc1Br)C(=O)CNC(=O)C1CCCCC1` was tested, and the activation was inconclusive: 79.3%.
`CN(C[C@@H]1[C@@H](c2ccccc2)[C@H](CO)N1C(=O)C1CC1)C(=O)c1ccccn1` was tested, and the activation was inactive: 0.0605%.
`COCCNCC(O)CON=C1c2ccccc2-c2ccccc21` (centres undefined) was tested, and the activation was inactive: -2.48%.
For `C[C@H]1CN([C@@H](C)CO)C(=O)Cc2cc(NC(=O)c3ccncc3)ccc2O[C@H]1CN(C)S(=O)(=O)c1cn(C)cn1`, the activation was inactive: -1.66%.
In the case of `CCOc1ccccc1NC(=O)N1CCC(NC(=O)C2CCCCC2)CC1`, the activation is reported as active: 34.6%.
`Cc1cnc(NC(=O)C2CC(=O)N(c3ccc4c(c3)OCCO4)C2)s1` (centres undefined) was tested, and the activation was inactive: 0.002%.
For `CC(C)NC(=O)Nc1ccc2c(c1)CC(=O)N([C@H](C)CO)C[C@H](C)[C@@H](CN(C)Cc1ccc(C(=O)O)cc1)O2`, the activation was active: 38.7%.
`CC1Cc2nc(SCC(=O)Nc3nccs3)n(Cc3ccccc3)c(=O)c2S1` (centres undefined) was tested, and the activation was inconclusive: 34.6%.
`Cc1ccc(S(=O)(=O)N2CCC(C(=O)OCC(=O)N(C)c3ccccc3)CC2)cc1C` was tested, and the activation was inconclusive: 30.3%.
With `COc1ccc(S(=O)(=O)Nc2cccc3c2O[C@H](CN(C)C(=O)Nc2c(C)noc2C)[C@H](C)CN([C@@H](C)CO)C3=O)cc1` the activation was active: 63.4%.
`Fc1ccc(C2=CC(c3cccs3)n3nnnc3N2)cc1` (centres undefined) was tested, and the activation was inconclusive: 28%.
`COc1cc(C)ccc1OCC(=O)Nc1ccccc1N1CCOCC1` was tested, and the activation was inconclusive: 34.2%.
For `COc1ccc(NC(=O)N(C)C[C@H]2Oc3ccc(NC(=O)Cc4cn(C)c5ccccc45)cc3CC(=O)N([C@H](C)CO)C[C@H]2C)cc1`, the activation was inconclusive: 33.9%.
With `CCCCN1C(=O)C(CC(=O)NC2CCCCC2)CC(C(=O)N2CCOCC2)=C1C` (centres undefined) the activation was inconclusive: 26.9%.
In the case of `COc1ccc(S(=O)(=O)N(C)C[C@@H]2Oc3ccc(NC(=O)CCCN(C)C)cc3C(=O)N([C@@H](C)CO)C[C@@H]2C)cc1`, the activation is reported as active: 56.9%.
With `CC(C)N(C(=O)CSc1nnc(NC2CC2)s1)c1ccccc1` the activation was inconclusive: 82.8%.
For `COc1ccc(CN(C)C[C@H]2Oc3ccc(N(C)C)cc3CC(=O)N([C@@H](C)CO)C[C@@H]2C)cc1`, the activation was inconclusive: 29.1%.
In the case of `C[C@H](CO)N1C[C@H](C)[C@H](CN(C)C(=O)Nc2ccc(F)cc2)Oc2ccc(NC(=O)Cc3cn(C)c4ccccc34)cc2C1=O`, the activation is reported as inconclusive: 46.8%.
In the case of `CN1c2ccc(Br)cc2[C@H]2[C@H](CCN2C(=O)Nc2ccc(F)cc2)[C@H]1CO`, the activation is reported as inconclusive: 37.3%.
For `C[C@@H]1CN([C@H](C)CO)C(=O)Cc2cc(NC(=O)Nc3ccc(C(F)(F)F)cc3)ccc2O[C@H]1CN(C)Cc1ccc(Oc2ccccc2)cc1`, the activation was active: 446%.
For `C[C@H](CO)N1C[C@H](C)[C@H](CN(C)C)Oc2c(NC(=O)CCCCCC(=O)Nc3ccccc3N)cccc2C1=O`, the activation was inconclusive: 43.1%.
In the case of `CC(C)NC(=O)C1CCN(C2CCN(Cc3ccc4cccc(F)c4n3)CC2)CC1`, the activation is reported as inconclusive: 55.1%.
In the case of `C[C@@H]1CN([C@H](C)CO)C(=O)CCCn2nncc2CO[C@@H]1CN(C)Cc1ccc(C(=O)O)cc1`, the activation is reported as inactive: -0.281%.
With `Cc1ccn2cc(-c3cc4ccccc4oc3=O)nc2c1` the activation was inconclusive: 31%.
In the case of `CN(C)CCN(C(=O)C1CCN(S(=O)(=O)c2cccs2)CC1)c1nc2c(F)cccc2s1`, the activation is reported as inactive: -0.157%.
For `CC[C@H](C)[C@@H]1NC(=O)[C@@H](CC(C)C)NC(=O)[C@H](C(C)C)NC(=O)[C@H]2CSSC[C@H](NC1=O)C(=O)N2`, the activation was inactive: 0.307%.
In the case of `C[C@@H]1CN([C@@H](C)CO)C(=O)Cc2cc(NC(=O)Nc3ccc4c(c3)OCO4)ccc2O[C@H]1CN(C)C`, the activation is reported as active: 384%.
With `COC(=O)c1cc(=O)n(CCc2ccccc2)c(=Nc2ccc(F)cc2)s1` the activation was inconclusive: 71.9%.
With `C[C@H]1CN([C@@H](C)CO)C(=O)c2cc(NC(=O)Nc3ccc4c(c3)OCO4)ccc2O[C@H]1CN(C)Cc1ccc(C(=O)O)cc1` the activation was inconclusive: 30.4%.
With `C[C@@H]1CN([C@@H](C)CO)S(=O)(=O)c2ccc(C#CC(C)(C)O)cc2O[C@H]1CN(C)Cc1ccccc1` the activation was inconclusive: 34.7%.
`CCCCNc1nc2ccccc2nc1NS(=O)(=O)c1ccc(F)cc1` was tested, and the activation was inconclusive: 31.3%.
`OC(c1ccccc1)(c1nc(-c2ccccc2)cs1)C(F)(F)F` (centres undefined) was tested, and the activation was inconclusive: 61.5%.
For `CCN(CC)C(=S)NCCc1ccccc1`, the activation was inconclusive: 43.7%.
`COc1ccc(S(=O)(=O)Nc2cccc3c2O[C@@H](CN(C)C(=O)Nc2ccc4c(c2)OCO4)[C@@H](C)CN([C@H](C)CO)C3=O)cc1` was tested, and the activation was inconclusive: -0.148%.
In the case of `C[C@@H]1CCCCO[C@@H](CN(C)S(=O)(=O)c2ccc(F)cc2)[C@@H](C)CN([C@@H](C)CO)C(=O)c2cc(NC(=O)Nc3ccccc3)ccc2O1`, the activation is reported as inactive: 0.062%.
In the case of `Cc1noc(C)c1NC(=O)N(C)C[C@@H]1Oc2ccc(NC(=O)c3ccncc3)cc2C(=O)N([C@H](C)CO)C[C@@H]1C`, the activation is reported as active: 421%.
In the case of `COCCNC(=O)C[C@H]1CC[C@@H]2[C@@H](COc3ccc(NC(=O)c4cnccn4)cc3C(=O)N2C)O1`, the activation is reported as inactive: 0.074%.
For `C#C[C@]1(O)CCC2C3CCC4=Cc5oncc5CC4(C)C3CCC21C` (some centres undefined), the activation was inconclusive: 70.1%.
`Cc1ccc(-c2nnc(Cc3ccc([N+](=O)[O-])cc3)o2)cc1` was tested, and the activation was inconclusive: 29.7%.
With `C[C@H](CO)N1C[C@H](C)[C@H](CN(C)Cc2ccncc2)Oc2c(NC(=O)Nc3ccc(F)cc3)cccc2C1=O` the activation was active: 105%.
With `COc1ccc2c3c([nH]c2c1)[C@H](CO)N(S(C)(=O)=O)CC31CN(CC2CC2)C1` the activation was inactive: -0.325%.
`C[C@H](CO)N1C[C@H](C)[C@@H](CN(C)S(=O)(=O)c2ccccc2)Oc2c(NC(=O)CCC(F)(F)F)cccc2C1=O` was tested, and the activation was inconclusive: 63%.
For `C[C@@H]1CN([C@H](C)CO)C(=O)Cc2cc(NS(=O)(=O)c3ccccc3)ccc2O[C@@H]1CN(C)Cc1ccc(C(F)(F)F)cc1`, the activation was active: 46.6%.
